Reference: article PMC9911399, “Two distinct binding modes provide the RNA-binding protein RbFox with extraordinary sequence specificity”
Positions count from the first letter of the chain named. This is one part of the list.

T1: RBFOX1 RRM RbFoxmut (Fox-RRM*) (Homo sapiens, UniProt Q9NWB1 109-208, R118D;E147R;N151S;E152T)
T1 sequence: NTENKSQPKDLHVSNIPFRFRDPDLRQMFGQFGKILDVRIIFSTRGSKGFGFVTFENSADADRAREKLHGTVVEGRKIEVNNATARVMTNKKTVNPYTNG

B1: GAAGGGA (DNA:RNA)
RNA: GGGAGACCGGAAUUCAGAUUGUCCGAAGGGAUUAAAUCCCGUCGUAGCCACCA
DNA 1: CAATCTGAATTCCGGTCTCCC
DNA 2: TGGTGGCTACGACGGGATT
B2: UUACCAA (DNA:RNA)
RNA: B1 RNA with G25U, A26U, G28C, G29C, G30A
DNA 1: CAATCTGAATTCCGGTCTCCC
DNA 2: TGGTGGCTACGACGGGATT
B3: AGUAAAU (DNA:RNA)
RNA: GGGAGACCGGAAUUCAGAUUGUCCAGUAAAUUUAAAUCCCGUCGUAGCCACCA
DNA 1: CAATCTGAATTCCGGTCTCCC
DNA 2: TGGTGGCTACGACGGGATT
B4: GCGCGUU (DNA:RNA)
RNA: B1 RNA with A26C, A27G, G28C, G30U, A31U
DNA 1: CAATCTGAATTCCGGTCTCCC
DNA 2: TGGTGGCTACGACGGGATT
B5: UAUGUUG (DNA:RNA)
RNA: B1 RNA with G25U, A27U, G29U, G30U, A31G
DNA 1: CAATCTGAATTCCGGTCTCCC
DNA 2: TGGTGGCTACGACGGGATT
B6: AUGCCCC (DNA:RNA)
RNA: B3 RNA with G26U, U27G, A28C, A29C, A30C, U31C
DNA 1: CAATCTGAATTCCGGTCTCCC
DNA 2: TGGTGGCTACGACGGGATT
B7: CACUUAU (DNA:RNA)
RNA: B3 RNA with A25C, G26A, U27C, A28U, A29U
DNA 1: CAATCTGAATTCCGGTCTCCC
DNA 2: TGGTGGCTACGACGGGATT
B8: CAGGAGU (DNA:RNA)
RNA: B1 RNA with G25C, A27G, G29A, A31U
DNA 1: CAATCTGAATTCCGGTCTCCC
DNA 2: TGGTGGCTACGACGGGATT
B9: CAUGCCU (DNA:RNA)
RNA: B3 RNA with A25C, G26A, A28G, A29C, A30C
DNA 1: CAATCTGAATTCCGGTCTCCC
DNA 2: TGGTGGCTACGACGGGATT
B10: CCCCGAU (DNA:RNA)
RNA: B3 RNA with A25C, G26C, U27C, A28C, A29G
DNA 1: CAATCTGAATTCCGGTCTCCC
DNA 2: TGGTGGCTACGACGGGATT
B11: GUCCACC (DNA:RNA)
RNA: B3 RNA with A25G, G26U, U27C, A28C, A30C, U31C
DNA 1: CAATCTGAATTCCGGTCTCCC
DNA 2: TGGTGGCTACGACGGGATT
B12: AGGGACG (DNA:RNA)
RNA: B3 RNA with U27G, A28G, A30C, U31G
DNA 1: CAATCTGAATTCCGGTCTCCC
DNA 2: TGGTGGCTACGACGGGATT
B13: AGGCUAU (DNA:RNA)
RNA: B3 RNA with U27G, A28C, A29U
DNA 1: CAATCTGAATTCCGGTCTCCC
DNA 2: TGGTGGCTACGACGGGATT
B14: CCAUGAC (DNA:RNA)
RNA: B1 RNA with G25C, A26C, G28U, G30A, A31C
DNA 1: CAATCTGAATTCCGGTCTCCC
DNA 2: TGGTGGCTACGACGGGATT
B15: GCUGUUG (DNA:RNA)
RNA: B1 RNA with A26C, A27U, G29U, G30U, A31G
DNA 1: CAATCTGAATTCCGGTCTCCC
DNA 2: TGGTGGCTACGACGGGATT
B16: AGGAUUA (DNA:RNA)
RNA: B3 RNA with U27G, A29U, A30U, U31A
DNA 1: CAATCTGAATTCCGGTCTCCC
DNA 2: TGGTGGCTACGACGGGATT
B17: UGGUUAG (DNA:RNA)
RNA: B3 RNA with A25U, U27G, A28U, A29U, U31G
DNA 1: CAATCTGAATTCCGGTCTCCC
DNA 2: TGGTGGCTACGACGGGATT
B18: UGGGCUG (DNA:RNA)
RNA: B3 RNA with A25U, U27G, A28G, A29C, A30U, U31G
DNA 1: CAATCTGAATTCCGGTCTCCC
DNA 2: TGGTGGCTACGACGGGATT
B19: CGGACAA (DNA:RNA)
RNA: B3 RNA with A25C, U27G, A29C, U31A
DNA 1: CAATCTGAATTCCGGTCTCCC
DNA 2: TGGTGGCTACGACGGGATT
B20: ACCCGUC (DNA:RNA)
RNA: B3 RNA with G26C, U27C, A28C, A29G, A30U, U31C
DNA 1: CAATCTGAATTCCGGTCTCCC
DNA 2: TGGTGGCTACGACGGGATT
B21: GGCAACG (DNA:RNA)
RNA: B3 RNA with A25G, U27C, A30C, U31G
DNA 1: CAATCTGAATTCCGGTCTCCC
DNA 2: TGGTGGCTACGACGGGATT
B22: CCCUACG (DNA:RNA)
RNA: B3 RNA with A25C, G26C, U27C, A28U, A30C, U31G
DNA 1: CAATCTGAATTCCGGTCTCCC
DNA 2: TGGTGGCTACGACGGGATT
B23: GAUGAAG (DNA:RNA)
RNA: B3 RNA with A25G, G26A, A28G, U31G
DNA 1: CAATCTGAATTCCGGTCTCCC
DNA 2: TGGTGGCTACGACGGGATT
B24: UACUGGU (DNA:RNA)
RNA: B1 RNA with G25U, A27C, G28U, A31U
DNA 1: CAATCTGAATTCCGGTCTCCC
DNA 2: TGGTGGCTACGACGGGATT
B25: AAAUUUC (DNA:RNA)
RNA: B1 RNA with G25A, G28U, G29U, G30U, A31C
DNA 1: CAATCTGAATTCCGGTCTCCC
DNA 2: TGGTGGCTACGACGGGATT
B26: GUAUACU (DNA:RNA)
RNA: B3 RNA with A25G, G26U, U27A, A28U, A30C
DNA 1: CAATCTGAATTCCGGTCTCCC
DNA 2: TGGTGGCTACGACGGGATT

The binders below were run against T1, RBFOX1 RRM RbFoxmut (Fox-RRM*) (assay: EMSA; HiTS-Eq, 1 nM pool, 10 min; buffer printed only for the single-RNA assays: 10 mM Tris pH 7.5, 150 mM NaCl, 3.4 mM EDTA, 0.001% NP-40, 30 C). Conditions: tags: His6 N-terminal (pET28a); label: 5' 32P.
How it was run: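 Purified RbFox RRM (wild type or mutant) was equilibrated for 10 min in 50 µL with 1 nM of a 5′-radiolabelled pool of RNA with 7 randomized nucleotides, its flanks annealed to DNA oligonucleotides, across increasing protein concentrations. Free RNA was separated by 8% native PAGE, excised, reverse-transcribed, PCR-barcoded and sequenced on an Illumina HiSeq 2500. Relative association constants came from read-count changes of each variant against the control reaction, normalised to the cognate motif.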

Row | Binder | binding signal
1 | B1 | 0.0617 KA relative to UGCAUGU
2 | B2 | 0.0792 KA relative to UGCAUGU
3 | B3 | 0.0806 KA relative to UGCAUGU
4 | B4 | 0.105 KA relative to UGCAUGU
5 | B5 | 0.16 KA relative to UGCAUGU
6 | B6 | 0.0672 KA relative to UGCAUGU
7 | B7 | 0.137 KA relative to UGCAUGU
8 | B8 | 0.165 KA relative to UGCAUGU
9 | B9 | 0.112 KA relative to UGCAUGU
10 | B10 | 0.0971 KA relative to UGCAUGU
11 | B11 | 0.0734 KA relative to UGCAUGU
12 | B12 | 0.119 KA relative to UGCAUGU
13 | B13 | 0.0829 KA relative to UGCAUGU
14 | B14 | 0.119 KA relative to UGCAUGU
15 | B15 | 0.152 KA relative to UGCAUGU
16 | B16 | 0.133 KA relative to UGCAUGU
17 | B17 | 0.171 KA relative to UGCAUGU
18 | B18 | 0.462 KA relative to UGCAUGU
19 | B19 | 0.057 KA relative to UGCAUGU
20 | B20 | 0.0923 KA relative to UGCAUGU
21 | B21 | 0.1 KA relative to UGCAUGU
22 | B22 | 0.113 KA relative to UGCAUGU
23 | B23 | 0.104 KA relative to UGCAUGU
24 | B24 | 0.103 KA relative to UGCAUGU
25 | B25 | 0.08 KA relative to UGCAUGU
26 | B26 | 0.137 KA relative to UGCAUGU
